According to PubChem BioAssay AID624418 (National Center for Advancing Translational Sciences (NCATS), 2012):
Screen size: about 410,000 compounds; about 530 (0.13%) were called active. The inconclusive results got no clear call from the source; some entries with a clear call stand among them for comparison. Calls come from the whole dose curve; as a rule, active = well fitted inhibition curve with a large enough effect; inconclusive = small, poorly fitted or top-dose-only effect, or another doubt; inactive = no such curve, though single readings can be large or run the other way. Potencies beside an inconclusive call are fits to weak or partial responses and may not hold up.

Assay: qHTS of GLP-1 Receptor Inverse Agonists: Cytotox Screen
Details: HEK293 cAMP-luciferase reporter cells, luminescence, 24 h; activity change, negative = inhibition: at 38.3 µM (top of the series)
Method in brief: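 To flag toxic compounds, the library was rerun on cells for 24 hr at 37 deg C and 5% CO2. Viability-linked luminescence was captured 12 min after adding luciferase detection reagent.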
% is set by controls: 0 for no effect and ±100 for the full control effect; potency is the fitted concentration of half-maximal effect.

Row | Structure (SMILES) | Potency | activity change, negative = inhibition
1 | COc1ccc(NC(=O)CCc2c(C)nn(-c3ccc(N4CCOCC4)nn3)c2C)cc1 | inconclusive: 20 µM [inhibitor, single point] | –
2 | FC(F)(F)c1cnc(-c2cnc(-c3ccccn3)nc2)c(Cl)c1 | – | inactive: 4.04%
3 | Cc1ccc(-n2nnnc2SCC(=O)Nc2ccc(N3CCN(C)CC3)cc2)c(C)c1 | – | inactive: -16%
4 | COc1ccc(Cl)cc1NC(=O)CCn1c(=O)oc2ccccc21 | inconclusive: 2.51 µM [inhibitor, partial curve, poor fit] | –
5 | Cc1ncn(-c2ccccc2)c1-c1ccccc1 | inconclusive: 0.501 µM [inhibitor, full curve, poor fit] | –
6 | O=C(Cn1c(-c2cccs2)cc2ccccc21)NCCCN1CCN(c2ccccc2F)CC1 | – | inactive: -0.836%
7 | CN(CC(=O)Nc1cccc(F)c1)C(=O)c1ccc2c(c1)CC(c1ccccc1)OC2=O (stereo not drawn) | inconclusive: 11.2 µM [inhibitor, partial curve] | –
8 | C=C(C)c1cccc(C(C)(C)NC(=O)N2CCN(C/C=C/c3ccccc3)CC2)c1 | inconclusive: 14.1 µM [inhibitor, partial curve, poor fit] | –
9 | CC(C)CNC(=S)NC(=O)c1ccc(F)cc1 | inconclusive: 31.6 µM [inhibitor, partial curve, poor fit] | –
10 | Cc1cc(C)n2nc(C(=O)N/N=C/c3ccccc3C)nc2n1 | inconclusive: 0.501 µM [inhibitor, full curve, poor fit] | –
11 | CC(C)c1ccc(NC(=O)N(CCc2nc3ccccc3[nH]2)C2CCCC2)cc1 | inconclusive: 22.4 µM [inhibitor, single point] | –
12 | Cc1ccc(O)c(NC(=O)c2onc(C)c2Cl)c1 | – | inactive: -0.903%
13 | CC1CCCCN1C(=O)CSc1nnc(-c2c[nH]c3ccccc23)o1 (stereo not drawn) | inconclusive: 7.08 µM [inhibitor, partial curve, poor fit] | –
14 | CC1CC(=O)N(c2ccc(Br)cc2)C(=O)C1 | – | inactive: 5.37%
15 | CC(C)c1ccc(-n2c(-c3ccccc3)c[n+]3c2CCc2ccccc2-3)cc1 | inconclusive: 31.6 µM [inhibitor, single point] | –
16 | COc1ccc(CN(C)C[C@@H]2OCCCC[C@@H](C)Oc3ccc(N(C)C)cc3C(=O)N([C@H](C)CO)C[C@@H]2C)cc1 | inconclusive: 10 µM [inhibitor, single point] | –
17 | CN(C)S(=O)(=O)N1CCc2ccc(NC(=O)c3ccc(C(F)(F)F)cc3)cc2C1 | – | inactive: -5.6%
18 | Nn1c(SCC(=O)Nc2ccc3c(c2)OCO3)nnc1-c1ccc(Cl)cc1 | inconclusive: 2 µM [inhibitor, partial curve, poor fit] | –
19 | Cc1ccc(-c2cc(C(F)F)nc(NCc3cccnc3)n2)cc1 | – | inactive: 4.85%
20 | Cc1cc2nc(CCN(C(=S)NCC(C)C)C3CCCC3)[nH]c2cc1C | inconclusive: 28.2 µM [inhibitor, single point] | –
21 | CCCS(=O)(=O)c1nc(S(=O)(=O)c2ccc(C)cc2)c(N2CCCC(C)C2)s1 (stereo not drawn) | – | inactive: -3.97%
22 | O=C(Nc1cccnc1)Nc1ccc(Br)cc1Cl | inconclusive: 25.1 µM [inhibitor, single point] | –
23 | O=C(CCl)NCCCCCCCCCNC(=O)CCl | inconclusive: 10 µM [inhibitor, partial curve, poor fit] | –

Row | Structure (SMILES) | Potency | activity change, negative = inhibition
24 | O=S(=O)(c1ccccc1)N1N=C(c2cccs2)CC1c1ccc(F)cc1 (stereo not drawn) | – | inactive: 2.47%
25 | COc1ccc(S(=O)(=O)N(CC(=O)Nc2ccc3c(c2)OCO3)c2ccccc2OC)cc1 | inconclusive: 12.6 µM [inhibitor, single point] | –
26 | C=CC(=O)Nc1cccc(Oc2ccnc(Nc3ccc(N4CCN(C)CC4)cc3)n2)c1 | inconclusive: 1 µM [inhibitor, full curve, poor fit] | –
27 | O=[N+]([O-])c1ccccc1S(=O)(=O)Nc1cccc2cccnc12 | inconclusive: 6.31 µM [inhibitor, single point] | –
28 | Cn1c(=O)c2c(SCC(=O)N3CCCC3)nc(CC(C)(C)C)nc2n(C)c1=O | inconclusive: 17.8 µM [inhibitor, partial curve, poor fit] | –
29 | N#C/C(=C\c1ccc(N2CCOCC2)o1)C(=O)N1CCOCC1 | inconclusive: 10 µM [inhibitor, partial curve, poor fit] | –
30 | C=CCOC(=O)C1=C[C@H](c2cn(C(C)=O)c3ccccc23)C[C@H](OCc2ccc(CO)cc2)O1 | inconclusive: 28.2 µM [inhibitor, single point] | –
31 | CCCOc1ccc(C(=O)NCC(c2cccs2)N(C)C)cc1OC (stereo not drawn) | – | inactive: 8.53%
32 | Cc1nc(N)[nH]c(=O)c1CCCNc1ccc(CCCCC2(CCl)OCCO2)cc1 | – | inactive: -14.8%
33 | Cc1cc(C)cc(C(=O)NCCn2cc(SCC(=O)N3CCOCC3)c3ccccc32)c1 | – | inactive: -5.78%
34 | CS(=O)(=O)/C(C#N)=C/c1c(-c2ccccc2)nc2n1CCS2 | – | inactive: 3.36%
35 | CCCc1[nH]nc2c1C(c1ccc(Br)s1)C(C#N)=C(N)O2 (stereo not drawn) | inconclusive: 28.2 µM [inhibitor, single point] | –
36 | CC(C)(C)c1nc(CN2CCCCC2)cc(CN2CCCCC2)c1O | inconclusive: 22.4 µM [inhibitor, partial curve, poor fit] | –
37 | O=C(/C=C/c1cc(Br)ccc1O)c1ccco1 | inconclusive: 11.2 µM [inhibitor, partial curve, poor fit] | –
38 | NCCCC[C@H](N)c1nnc([C@H](CC(=O)O)NC(=O)C2CCNCC2)o1 | inconclusive: 0.501 µM [inhibitor, full curve, poor fit] | –
39 | Cc1ccc(-c2ccc(/C=N/NC(N)=S)o2)cc1 | inconclusive: 3.16 µM [inhibitor, full curve, poor fit] | –
40 | COc1ccc2oc(C(=O)OCC(=O)NC3CCCC3)c(C)c2c1 | – | inactive: -4.1%
41 | COc1ccc(-c2nc(SCC(=O)NCc3ccccc3Cl)n[nH]2)cc1 | inconclusive: 8.91 µM [inhibitor, partial curve, poor fit] | –
42 | N#C/C(=C\c1ccc(-c2ccc(F)cc2)o1)C(=O)Nc1nc(-c2cccs2)cs1 | inconclusive: 11.2 µM [inhibitor, single point] | –
43 | O=C(ONC1=NCCCCC1)c1ccc([N+](=O)[O-])cc1 | inconclusive: 28.2 µM [inhibitor, single point] | –
44 | COc1cc(OC)cc(-c2c(-c3ccsc3)c3cc(Br)ccc3n2C)c1 | inconclusive: 28.2 µM [inhibitor, single point] | –
45 | Cc1ccc(-n2cc(CN(C)Cc3nccn3C)c(-c3cccc(C)c3)n2)cc1 | inconclusive: 14.1 µM [inhibitor, single point] | –
46 | Cc1ccc(C(=O)N2N=C(c3cccc(NS(C)(=O)=O)c3)CC2c2cccs2)cc1 (stereo not drawn) | inconclusive: 11.2 µM [inhibitor, single point] | –

Row | Structure (SMILES) | Potency | activity change, negative = inhibition
47 | CN(C)Cc1ccc(F)cc1Sc1ccc(Cl)cc1Cl | inconclusive: 28.2 µM [inhibitor, single point] | –
48 | CCCn1c(C2CCCN2c2nc(-c3ccc(OC)cc3)cs2)nc2ccccc21 (stereo not drawn) | inconclusive: 15.8 µM [inhibitor, single point] | –
49 | CC(C)(C)C1CCC(=NNc2ncc(C(F)(F)F)cc2Cl)CC1 (stereo not drawn) | inconclusive: 28.2 µM [inhibitor, single point] | –
50 | CCOC(=O)c1c(-c2ccccc2)nnn1-c1nc(OCC)nc(N2CCCCC2)n1 | inconclusive: 5.62 µM [inhibitor, partial curve, poor fit] | –
51 | CCn1ncc(Br)c1C(=O)Nc1nccs1 | – | inactive: 10.9%
52 | COc1cc(/C=C/C(=O)c2ccc(C)cc2)ccc1OCC#N | inconclusive: 28.2 µM [inhibitor, single point] | –
53 | Cc1cc(C)nc(Sc2ncnc3c2oc2ccccc23)n1 | inconclusive: 10 µM [inhibitor, single point] | –
54 | CCOc1ccc(S(=O)(=O)NCCc2cn3ccccc3n2)cc1 | – | inactive: -3.3%
55 | Cc1cccc(CS(=O)(=O)Cc2ccc(C(=O)NCCCN3CCOCC3)o2)c1 | – | inactive: -3.33%
56 | Cc1ccc(NC(=S)N(CCN(C)C)Cc2cc3cc(C)cc(C)c3[nH]c2=O)cc1 | inconclusive: 31.6 µM [inhibitor, partial curve, poor fit] | –
57 | CC(=O)Nc1nonc1-c1nnc(SCc2ccccc2)n1C | – | inactive: 13.6%
58 | CCC1(c2ccc(F)cc2)NC(=O)N(CC(=O)Nc2ccccc2Cl)C1=O (stereo not drawn) | – | inactive: 5.94%
59 | Cc1cccc(NC(=S)Nc2ccc(Oc3ccccc3)cc2)n1 | inconclusive: 4.47 µM [inhibitor, full curve] | –
60 | Cc1cn([C@H]2C[C@H](O)[C@@H](/C=C/C(=O)NCc3ccco3)O2)c(=O)[nH]c1=O | – | inactive: -0.194%
61 | CC(C)(C)OC(=O)N[C@H](C(=O)OC(C)(C)C)c1ccc2c(c1)OCO2 | inconclusive: 3.55 µM [inhibitor, partial curve, poor fit] | –
62 | O=C1CCCN1c1ccc(S(=O)(=O)Nc2ccc3c(c2)OCCO3)cc1 | inconclusive: 4.47 µM [inhibitor, full curve] | –
63 | O=C(COC(=O)c1ccc(Cl)cc1)NC(=O)NC1CCCC1 | – | inactive: 7.79%
64 | CC(=O)N(/N=C/c1ccc([N+](=O)[O-])o1)c1nc2ccccc2c(=O)n1-c1ccccc1 | – | inactive: -2.87%
65 | COc1ccc(Br)cc1CN1CCN(Cc2c[nH]c3ccccc23)CC1 | – | inconclusive: -73% [inhibitor]
66 | COc1ccc(CCN2CCC(CNC(=O)c3cnn(-c4cccc(Cl)c4)c3C3CCN(C(=O)OC(C)(C)C)CC3)CC2)cc1 | inconclusive: 10 µM [inhibitor, single point] | –
67 | O=C(Nc1ccccc1)c1ccc(CN2CCc3ccccc3C2)cc1 | – | inactive: -14.7%
68 | S=C1NCN(C2CCCCC2)CN1CCc1ccccc1 | inconclusive: 11.2 µM [inhibitor, single point] | –
